Test results from the RNAGym collection of RNA variant scans (doi:10.1073/pnas.2313332121).
This sample is rich in variants without activity.

B1: TPR 5TU (parent)
chain: GGAUCUUCUCGAUCUAACAAAAAAGACAAAUCUGCCACAAAGCUUGAGAGCAUCUUCGGAUGCAGAGGCGGCAGCCUUCGGUGGCGCGAUAGCGCCAACGUUCUCAACUAUGACACGCAAAACGCGUGCUCCGUUGAAUGGAGUUUAUCAUG

Variants of: B1
Experiment: polymerase ribozyme fitness, log enrichment relative to wild type (log ratio); higher = more active; in vitro selection for triplet polymerase activity
How it was run: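 To select mutant libraries of each subunit of a heterodimeric triplet polymerase ribozyme, built by PCR and transcribed, each was annealed with a biotinylated primer, partner subunit and triplets, then incubated frozen at −7 °C. Extended constructs were gel-excised, captured on streptavidin beads and amplified by RT-PCR, in one round carried out in triplicate. Illumina sequencing of input and output libraries kept genotypes with ≥10 input reads and ≥1 read per output. Fitness is the base-2 logarithm of genotype enrichment relative to wild-type enrichment, from inverse-variance-weighted replicate averages.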

| Variant | polymerase ribozyme fitness (log ratio) |
| --- | --- |
| C51G C79A | ≤ -4.2 |
| C51G C79G C96G | ≤ -4.2 |
| C51G C79G G86U C114U U134A | ≤ -4.2 |
| C51G C85A A89C A91G | ≤ -4.2 |
| C51G C87A A115U C118U G140U | ≤ -4.2 |
| C51G C87A G126U U148A | ≤ -4.2 |
| C51G C96A A147C | -3.82 |
| C51G C125U G141U | -3.54 |
| C51G G58C | -1.42 |
| C51G G58C G62A G88C C105U | ≤ -4.2 |
| C51G G59A A73G U90G A97U A98U G126A | ≤ -4.2 |
| C51G G62C C85A G143A | -1.5 |
| C51G G62U G67C A89C C96A | ≤ -4.2 |
| C51G G80U G94U | ≤ -4.2 |
| C51G G83U A110C G140C | ≤ -4.2 |
| C51G G84A C95G A119G | -2.85 |
| C51G G84A U90C U134C | ≤ -4.2 |
| C51G U56A A97U C123U | -3 |
| C51G U56A A106U | ≤ -4.2 |
| C51U A52C C85G A106G C125U | ≤ -4.2 |
| C51U A60G C85A | -3.39 |
| C51U A64U C96U A106U A115G | ≤ -4.2 |
| C51U A66G G88A | ≤ -4.2 |
| C51U A89U C95A A122G G126C C149U | ≤ -4.2 |

| Variant | polymerase ribozyme fitness (log ratio) |
| --- | --- |
| C51U C54U G58A A64G C69U C72G U77C G84U U101C C116A U146C | ≤ -4.2 |
| C51U C57A G68A | ≤ -4.2 |
| C51U C76G C87U A137C C149A | ≤ -4.2 |
| C51U C85U C96G A119C G141A | -2.65 |
| C51U C85U G100C | ≤ -4.2 |
| C51U C87A A97U A107U | ≤ -4.2 |
| C51U C87G C93G C105G A106C A113G | ≤ -4.2 |
| C51U C87G U104A U139C | ≤ -4.2 |
| C51U C93A | -2.34 |
| C51U C93U | -2.53 |
| C51U C95G | -1.68 |
| C51U C95G A110U G141U | ≤ -4.2 |
| C51U C95G C105U U145A | -1.72 |
| C51U C95U | -1.69 |
| C51U C96U | -0.419 |
| C51U C96U G124A | -0.0401 |
| C51U C116U A121C G152U | -3.78 |
| C51U G58C C87U U111G C118U | ≤ -4.2 |
| C51U G62U C75U G88U C95A | ≤ -4.2 |
| C51U G65C C87U | ≤ -4.2 |
| C51U G65U G92U U109A A137U | ≤ -4.2 |
| C51U G67A C72A C123U C132A U134C | ≤ -4.2 |
| C51U G74U G83C A98U C114A A121G C149A | ≤ -4.2 |
| C51U G81C C85U G117C U134A A137G | -3.98 |

| Variant | polymerase ribozyme fitness (log ratio) |
| --- | --- |
| C51U G83C G92C A142C | ≤ -4.2 |
| C51U G84A | -0.489 |
| C51U G86A C103G | ≤ -4.2 |
| C51U G88U | ≤ -4.2 |
| C51U G92U | -1.86 |
| C51U G92U C99A A106G C123G C129U | -2.74 |
| C51U G133A | ≤ -4.2 |
| C51U U53A G65U G84U C93A C116G U135G | ≤ -4.2 |
| C51U U53A G86U U90C C131A U144G | ≤ -4.2 |
| C51U U53G A119U G143C | ≤ -4.2 |
| C51U U56A | -0.892 |
| C51U U56G A73C C79G C93G A137C | ≤ -4.2 |
| C51U U61A G81U G86A C131G | ≤ -4.2 |
| C51U U78G | ≤ -4.2 |
| C51U U78G C96U | ≤ -4.2 |
| A52C A60C C93A | ≤ -4.2 |
| A52C A66U C93U U146A U148A | ≤ -4.2 |
| A52C A73G C85A | -3.88 |
| A52C A73U | -3.14 |
| A52C A73U A89G G126A | ≤ -4.2 |
| A52C A91C A120C | ≤ -4.2 |
| A52C A91U | ≤ -4.2 |
| A52C A122G | -1.4 |
| A52C C54A A89G G117A | -3.55 |

| Variant | polymerase ribozyme fitness (log ratio) |
| --- | --- |
| A52C C54A C93A C105G C131G | ≤ -4.2 |
| A52C C54G A91G C116A C132U U134C | ≤ -4.2 |
| A52C C57A G81A G140U | ≤ -4.2 |
| A52C C57U G58C C93G | ≤ -4.2 |
| A52C C69A C72G C85G | ≤ -4.2 |
| A52C C85A G117A C132A | ≤ -4.2 |
| A52C C87A G92C G141A | ≤ -4.2 |
| A52C C87G | ≤ -4.2 |
| A52C C93G C99A C118G | ≤ -4.2 |
| A52C C95U A115G G126C G141A | ≤ -4.2 |
| A52C C96A | -1.55 |
| A52C C96U A119U U130G | ≤ -4.2 |
| A52C C99G | -4.11 |
| A52C C99U | -1.81 |
| A52C C103A A113U A142U A150G | ≤ -4.2 |
| A52C G58A C93A C118U | -3.55 |
| A52C G58U G65U C69A G80C C103A C108G | ≤ -4.2 |
| A52C G65U A89U C95U C149U | ≤ -4.2 |
| A52C G67A A137U A138G A142G | ≤ -4.2 |
| A52C G68A G94C C99U C108G A120C G143C | ≤ -4.2 |
| A52C G71A A91U C93A C96G C132A | ≤ -4.2 |
| A52C G80C A89G G126U | ≤ -4.2 |
| A52C G81A C85U C99A U151G | ≤ -4.2 |
| A52C G83C C87U A122G | ≤ -4.2 |

| Variant | polymerase ribozyme fitness (log ratio) |
| --- | --- |
| A52C G83U | -2.01 |
| A52C G83U A106G | -2.56 |
| A52C G84A G100A A147G | ≤ -4.2 |
| A52C G86U C87U A113U G141C U148G | ≤ -4.2 |
| A52C G88U A89U | ≤ -4.2 |
| A52C G92A C93A U144C U148A | ≤ -4.2 |
| A52C G92U G152U | -3.32 |
| A52C G94C A106G | -1.86 |
| A52C U53A C87G A138C | ≤ -4.2 |
| A52C U53A G65A A66C C79U C149U | ≤ -4.2 |
| A52C U55A A107G | ≤ -4.2 |
| A52C U55A G59U | 0.0736 |
| A52C U61A C76U C93U A97G C149A | ≤ -4.2 |
| A52C U77G C79U C87A C95U | ≤ -4.2 |
| A52C U90G | ≤ -4.2 |
| A52C U101G | -1.56 |
| A52C U109G A138C | ≤ -4.2 |
| A52G A60G C75U G88U G92A C95U C116U | ≤ -4.2 |
| A52G A64U G81A G86C G92A A122C G143C | ≤ -4.2 |
| A52G A73C C87A C114A | ≤ -4.2 |
| A52G A107C | -3.09 |
| A52G A107U | -3.56 |
| A52G C54U U61G G74U C108U C131U | ≤ -4.2 |
| A52G C57A G83U A91G C95A | -4.15 |

| Variant | polymerase ribozyme fitness (log ratio) |
| --- | --- |
| A52G C57A G94U G117U A121C C131G | ≤ -4.2 |
| A52G C75A G84U A110U | ≤ -4.2 |
| A52G C79A G86U C123U C129A | ≤ -4.2 |
| A52G C79G C118U A142U | ≤ -4.2 |
| A52G C85U G86U C118G U144C C149G | ≤ -4.2 |
| A52G C87A G124A | ≤ -4.2 |
| A52G C87G | ≤ -4.2 |
| A52G C93G A115G A119C G140C | ≤ -4.2 |
| A52G C93G C96U U104C A150G | ≤ -4.2 |
| A52G C96U | -1.46 |
| A52G C96U A122U | -0.85 |
| A52G C108U | -2.1 |
| A52G G58C A107U G117C | ≤ -4.2 |
| A52G G58C G68A C76A C85U U90G G117U | ≤ -4.2 |
| A52G G58U A110G G143U | ≤ -4.2 |
| A52G G58U C75A U148C | ≤ -4.2 |
| A52G G67U A142G | -3.52 |
| A52G G68A G88C C96A C108A U148C | ≤ -4.2 |
| A52G G68U A91U C125A | ≤ -4.2 |
| A52G G70C C96A C125A G136C | ≤ -4.2 |
| A52G G71U A73G C76A G88U A106G | ≤ -4.2 |
| A52G G81A G83A A98U | -1.22 |
| A52G G83U U134A G140U | ≤ -4.2 |
| A52G G84U | -1.32 |

| Variant | polymerase ribozyme fitness (log ratio) |
| --- | --- |
| A52G G84U U144G | -1.56 |
| A52G G86A | -0.796 |
| A52G G86A G94U C96U | ≤ -4.2 |
| A52G G86U C96G U144C U151C | ≤ -4.2 |
| A52G G88U | ≤ -4.2 |
| A52G G94A G141C U148A | ≤ -4.2 |
| A52G U53A C54U C93G G112U | ≤ -4.2 |
| A52G U53A U55G G83U A113U C125U | ≤ -4.2 |
| A52G U55A C75G G84A A120U A142U | ≤ -4.2 |
| A52G U55A G83U C85U A121C G143U | ≤ -4.2 |
| A52G U55A U90G C96U C103A | ≤ -4.2 |
| A52G U56A | -0.876 |
| A52G U56A C96U G140U | ≤ -4.2 |
| A52G U56C C93A | -2.44 |
| A52G U56G A60C C85G G143U | ≤ -4.2 |
| A52G U56G G83A | -2.85 |
| A52G U78C A89U | -1.24 |
| A52G U90C A91U U127G U145A G152U | ≤ -4.2 |
| A52G U101A A138G | ≤ -4.2 |
| A52U A64G A97U | ≤ -4.2 |
| A52U A73C G83C G84A G92U C123G | ≤ -4.2 |
| A52U A122G | -3.43 |
| A52U C57A U78G C85A G92U G94C A119U G128C U145A | ≤ -4.2 |
